# Test results from PubChem BioAssay AID1745853 (National Center for Advancing Translational Sciences (NCATS), 2022).
# The other results are listed elsewhere or left out. The main result of the screen is listed elsewhere. These columns were measured beside it and carry no call.
# Legend:
# Assay in all cases: Primary Screen for Target Class Profiling of Small Molecule Inhibitors of Methyltransferases
# [1] = molecular target: Glycine N-methyltransferase (Homo sapiens) (UniProt Q14749); details: purified enzyme, MTase-Glo SAH luminescence; measured here: GNMT inhibition; at 40 µM; stronger effect = lower value
# Summary of the method: (§1)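 Each enzyme was assayed with SAM and its substrate. SAH formation detected by MTase-Glo luminescence; single-point 40 uM screen[…].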
# [2] = molecular target: Guanidinoacetate N-methyltransferase (Homo sapiens) (UniProt Q14353); details: purified enzyme, MTase-Glo SAH luminescence; measured here: GAMT inhibition; at 40 µM; stronger effect = lower value
# Summary of the method: as §1
# [3] = molecular target: Histamine N-methyltransferase (Homo sapiens) (UniProt P50135); details: purified enzyme, MTase-Glo SAH luminescence; measured here: HNMT inhibition; at 40 µM; stronger effect = lower value
# Summary of the method: as §1
# [4] = molecular target: Nicotinamide N-methyltransferase (Homo sapiens) (UniProt P40261); details: purified enzyme, MTase-Glo SAH luminescence; measured here: NNMT inhibition; at 40 µM; stronger effect = lower value
# Summary of the method: as §1
# [5] = molecular target: Phenylethanolamine N-methyltransferase (Homo sapiens) (UniProt P11086); details: purified enzyme, MTase-Glo SAH luminescence; measured here: PNMT inhibition; at 40 µM; stronger effect = lower value
# Summary of the method: as §1
# % is scaled to controls: 0 for no effect and ±100 for the full control effect.
Compound,"activity change, negative = inhibition [1] [%]","activity change, negative = inhibition [2] [%]","activity change, negative = inhibition [3] [%]","activity change, negative = inhibition [4] [%]","activity change, negative = inhibition [5] [%]"
CN1CCCC1CCOC(C)(c1ccccc1)c1ccc(Cl)cc1 (configuration not stated),-3.64,12.2,-17.8,-7.59,1.1
Cc1cc2c(cc3n2CC(C)(C(=O)NC2CCCCCCC2)N(C2CCCC2)C3=O)o1 (configuration not stated),-9.04,0.025,-2.41,-6.89,-4.37
CC(C)NC(=O)c1ccc2c(=O)n(C3CC3)c3nn(CC(=O)Nc4cc(F)ccc4F)c(=O)n3c2c1,6.3,0,11.2,1.92,6.47
Cc1ccc(C(=O)Cn2nc3n(C(C)C)c(=O)c4ccc(C(=O)NCC(C)C)cc4n3c2=O)c(C)c1,3.62,2.08,5.29,0.429,3.48
CS(=O)(=O)N[C@H]1C[C@H]2C(=O)NC[C@@H](CCC(=O)N3CCCCC3)N2C1,-5.97,-7.38,-2.29,-9.13,-14.2
CCC1c2ccc(C)n2CCN1C(=O)Nc1cc(Cl)c(OC)cc1OC (configuration not stated),1.35,-2.19,-5.22,-4.42,-1.24
CCN1C(=O)c2cc(C(=O)NCc3ccc(C)cc3)nn2CC1(C)C(=O)NC1CCCC1 (configuration not stated),4.7,0,-0.194,9.14,3.49
CSc1ccc(CNC(=O)c2cc3n(n2)CC(C)(C(=O)NCCC(C)C)N(C)C3=O)cc1 (configuration not stated),3.94,0,2.6,1.98,2.51
Cc1cccc(-c2noc(CCC(=O)N[C@H]3CC[C@H]3NC3CCCC3)n2)c1,-4.67,-6.46,-11.2,-14.7,-4.57
O=C(c1ccncc1)N1CC(c2nc(CCc3ccccc3)no2)C1,-5.43,-5.9,-1.57,-9.47,-9.87
CCCn1c(=O)c2ccccc2n2c(=O)n(Cc3ccc(Cl)cc3)nc12,0.313,3.06,6.89,-25.7,2.17
COc1cccc(N2CCN(C(=O)CCCc3nnc4n5nc(-c6ccccc6)nc5c5ccccc5n34)CC2)c1,4.29,1.93,5.5,6.74,0.313
COc1ccc(CNC[C@H]2O[C@H](Cc3cc(COc4ccccc4)on3)CC[C@@H]2O)cc1,-3.38,-4.24,-5.2,-9.12,3.87
O=C(c1ccc(-c2cncnc2)cc1)N1CCC(N[S+](=O)([O-])c2cccc(C(F)(F)F)c2)CC1,-9.81,-2.94,0.109,-11.2,-6.23
Cc1ccccc1C(=O)Nc1ccc(C(=O)N2CCC[C@@H](O)c3cc(Cl)ccc32)c(C)c1,-8.53,-10.7,1.55,-32.2,-7.63
Cc1cc(C)cc(N2C(=O)c3cc4occc4n3CC2(C)C(=O)NC2CCCCCC2)c1 (configuration not stated),0.474,0.438,-3.23,1.77,-3.02
Cc1nc([C@@H]2CN(C(=O)c3cccc(C#N)c3)C[C@H]2C(N)=O)n[nH]1,-4.18,-3.03,-0.806,-1.35,2.16
CC(=O)O[C@@H]1c2c(C)coc2C(=O)[C@@]23O[C@@H]2CC[C@H](C)[C@@]13C,-4.98,-9.62,3.72,-25.4,-3.03
Cc1ccc(C2Cn3nnc(C(=O)N4CCC(C(=O)NCCc5ccccc5)CC4)c3CO2)cc1 (configuration not stated),-1.12,-2.6,-1.83,-1.04,0.154

Compound,"activity change, negative = inhibition [1] [%]","activity change, negative = inhibition [2] [%]","activity change, negative = inhibition [3] [%]","activity change, negative = inhibition [4] [%]","activity change, negative = inhibition [5] [%]"
CN(CCCNC(=O)Cn1ccc2cc(S(=O)(=O)N3CCCCC3)ccc21)Cc1ccccc1,-2.28,0.23,-29.8,-7.29,-5.45
Cc1nn(C)c(C)c1S(=O)(=O)N1CCC(c2noc(C3CC3)n2)C1 (configuration not stated),-4.9,-10.7,-1.67,-25.8,-2.66
CCC(C)Nc1nc2c(-c3ccc(Cl)cc3)nnn2c2ccccc12 (configuration not stated),-0.876,3.03,-0.298,-4.68,-3.69
CCC(C)NC(=O)c1ccc2c(=O)n(C(C)C)c3nn(CC(=O)Nc4ccc(C(C)C)cc4)c(=O)n3c2c1 (configuration not stated),4.12,0.074,4.66,0.138,3.66
COCc1nnc(C2CC3(CCN(C(=O)c4cccc(C)c4)CC3)CN2C)o1 (configuration not stated),1.41,5.34,4.44,-3.72,20.5
Cc1ccc(CNC(=O)c2ccc3c(=O)[nH]c4c(C(=O)NC(C)C)sc(=S)n4c3c2)cc1,6.06,0,10.9,-61.1,-12.3
CCCSCCCN1C(=O)c2cc(-c3cccs3)nn2CC1(C)C(=O)NC1CCCCC1 (configuration not stated),0.496,0.137,4.93,4.17,-0.17
CC1CCCC(NC(=O)Cn2ccc3cc(S(=O)(=O)N4CCCC4)ccc32)C1C (configuration not stated),-5.68,-3.23,-9.47,-11.7,-11.5
C[C@H]1[C@@H]2[C@H]3OC(=O)[C@@H](C)[C@@H]3CC[C@@]2(C)CC[C@@H]1NC(=O)Cc1ccccc1,-5.72,-2.74,-1.75,-3.11,-6.26
O=C1CCC(c2ccc(-n3ccnc3)cc2)=NN1,-11.6,0.218,-2.48,-7.14,3.52
COc1ccc(N2CCOC3CCN(Cc4ccc(C(C)C)cc4)CC3C2=O)cc1 (configuration not stated),-10.6,-5.72,-7.65,-15.6,-6.36
COc1ccc(CN2C(=O)CSc3c(c4ccccc4n3C)C2C(=O)NCc2ccccc2)cc1 (configuration not stated),12.8,1.55,5.91,11.5,10.4
CC1(C)C2CC[C@]3(C)C(C(=O)C=C4[C@H]5C[C@@](C)(C(=O)O)CC[C@]5(C)CC[C@]43C)[C@@]2(C)CC[C@@H]1O (some centres not stated),3.77,–,11.7,–,–
CC1CCCC(NC(=O)C2(C)Cn3c(cc4sccc43)C(=O)N2CCc2ccc(Cl)cc2)C1C (configuration not stated),0.278,1.99,5.67,2.41,-0.632
COC(=O)c1ncn2c1C(=O)N(c1ccc(C)c(C)c1)C(C)(C(=O)NC1CCCC1)C2 (configuration not stated),-5.25,-0.159,-5.26,-4.96,-2.42
CN1CCN(CCN2C(=O)c3ccc(-c4ccco4)n3CC2(C)C(=O)NC2CCCCCC2)CC1 (configuration not stated),5.79,0.734,6.54,6.37,-3.53
COC(=O)CC1(O)C(=O)Nc2ccccc21 (configuration not stated),0.797,1.43,5.55,-9.11,-2.13
Cc1cccc(NC(=O)CSc2nnc3n(CCc4ccccc4)c(=O)c4ccccc4n23)c1,2.58,0,7.62,2.42,-0.466
O=c1n(CC2CC2)c2cccnc2n1[C@H]1CCCN(S(=O)(=O)c2cccnc2)C1,-3.47,-0.636,0.598,-16.5,0.661
